According to PubChem BioAssay AID686978 (National Center for Advancing Translational Sciences (NCATS), 2013):
The whole screen tested about 420,000 compounds, of which about 64,000 (15%) were called active. This list was built around the results that the source calls inconclusive (neither active nor inactive); the mix of calls is not that of the screen. Calls come from the whole dose curve; as a rule, active = well fitted inhibition curve with a large enough effect; inconclusive = small, poorly fitted or top-dose-only effect; inactive = flat fitted curve, though single readings scatter. No potency is given beside an inconclusive call; the fits are too rough.

Assay: qHTS for Inhibitors of human tyrosyl-DNA phosphodiesterase 1 (TDP1): qHTS in cells in absence of CPT; note: nearly all actives have a fitted effect of over 55% in size
Conditions: DT40 Tdp1-/- hTDP1 cells, no CPT, ATP luminescence, 48 h; activity change, negative = growth inhibition: at 46.2 µM (top of the series) unless noted
Outline: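 Cells were dispensed at 400 per well, compounds added by pin tool, plates incubated ≥48 hr at 37 °C, then CellTiter-Glo added for 30 min at room temperature before luminescence reading. Line: DT40 Tdp1-/- complemented with hTDP1; camptothecin omitted.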
% is set by controls: 0 for no effect and ±100 for the full control effect; potency is the fitted concentration of half-maximal effect; tags give direction and shape of the fitted curve.

Row | SMILES | Potency | activity change, negative = growth inhibition
1 | CN1CCN(Cc2c(O)ccc3cc(-c4ccccc4)c(=O)oc23)CC1 | inconclusive [inhibitor, partial curve] | –
2 | CC(C)(C)NS(=O)(=O)CC12CCC(CC1=O)C2(C)C (stereo not given) | – | inactive: 8.13%
3 | CC(=O)Nc1ccc(-c2ccnc3c2CC(C)(C(=O)Nc2cccc(C(C)=O)c2)O3)cc1 (stereo not given) | active: 16.4 µM | –
4 | COc1ccc(NC(=O)c2cc(S(=O)(=O)N3CCc4ccccc43)cn2C)cc1 | inconclusive [inhibitor, single point] | –
5 | O=C(CCC(=O)N1CCOc2ccccc21)N1CCCCC1 | – | inactive: -22.6%
6 | Cc1cccc(-c2nc(N3CCN(c4ccc(F)cc4)CC3)c3ccccc3n2)c1 | inconclusive [inhibitor, partial curve] | –
7 | CCOC(=O)c1cccc(NC(=O)c2cc3c(=O)n(Cc4cccnc4)ccc3nc2C)c1 | inconclusive [inhibitor, single point] | –
8 | COc1ccc(Nc2nc3c(S(=O)(=O)c4ccccc4)nnn3c3ccc(Cl)cc23)cc1OC | – | inactive: -0.295%
9 | COc1ccc(C(=O)C2CCCN(Cc3cnc(N4CCOCC4)s3)C2)c(OC)c1 (stereo not given) | active: 16.4 µM | –
10 | O=C(COc1ccccc1F)Nc1ccc2c(c1)OCCO2 | – | inactive: -12.8%
11 | COC(=O)C1=C(C)NC(=O)/C1=C\c1cc(C)n(-c2cccc(C)c2)c1C | active: 16.4 µM | –
12 | CN1C(=O)C(C(=O)Nc2ccccc2F)c2ccccc21 (stereo not given) | inconclusive [inhibitor, single point] | –
13 | COc1ccc(OCC(=O)NNC(=O)c2cccc(O)c2)cc1 | – | inactive: -4.48%
14 | Cc1cccc2cc(C#N)c(NCCNS(=O)(=O)c3ccccc3)nc12 | – | inactive: 0.0158%
15 | COc1ccc(C2=NS(=O)(=O)N(C)C(C(=O)NC3CCCC3)=C2)cc1OC | inconclusive [inhibitor, partial curve] | –
16 | COc1ccccc1C(=O)N[C@@H]1c2ccccc2C2(CCN(Cc3ccc4c(c3)OCO4)CC2)[C@H]1O | inconclusive [inhibitor, single point] | –
17 | COCCN(C(=O)Cc1cccs1)C(C(=O)NCc1ccc(OC)cc1)c1ccc(C)cc1 (stereo not given) | inconclusive [inhibitor, single point] | –
18 | CCOc1ccc(CN(C)C(C)C(=O)Nc2ccc([N+](=O)[O-])cc2Cl)cc1OC (stereo not given) | inconclusive [inhibitor, single point] | –
19 | Cc1cn([C@H]2C[C@H](O)[C@@H](CCC(=O)NCc3ccccc3)O2)c(=O)[nH]c1=O | – | inactive: -106%
20 | Cc1ccc(-n2nc3ccc(NC(=O)/C=C/c4ccco4)cc3n2)cc1 | inconclusive [inhibitor, partial curve] | –
21 | CCOC(=O)c1cccc(Nc2nc(C(=O)OCC)nc3ccccc23)c1 | active: 3.26 µM | –
22 | Cc1ccc2nc(N3CCN(C(=O)c4ccco4)CC3)c3nncn3c2c1 | active: 16.4 µM | –
23 | COc1ccc(Cl)cc1-c1nc(-c2ccc(NC(=O)c3ccncc3)cc2)no1 | active: 10.3 µM | –

Row | SMILES | Potency | activity change, negative = growth inhibition
24 | CC(C)(C)c1ccc(C(=O)N/N=C/c2ccccn2)cc1 | active: 5.8 µM | –
25 | COc1ccc(CCNC(=O)CSc2nnc(CNc3ccc(Cl)cc3)o2)cc1OC | inconclusive [inhibitor, single point] | –
26 | COc1ccccc1CCC(=O)Nc1ccc2c(c1)c(=O)n(C)n2C | – | inactive: -18.5%
27 | CC(=O)c1sc(NC(=O)C(C)Oc2ccc3c(C)cc(=O)oc3c2)nc1C (stereo not given) | inconclusive [inhibitor, single point] | –
28 | OC(COC(c1ccccc1)c1ccccc1)CN1CCN(c2cccc(Cl)c2)CC1 (stereo not given) | inconclusive [inhibitor, single point] | –
29 | O=C1C2C3C=CC(C3)C2C(=O)N1c1cccc2cccnc12 (stereo not given) | inconclusive [inhibitor, partial curve, poor fit] | –
30 | COc1cc(N2C(=O)CC3(CCCC3)CC2=O)cc(OC)c1OC | – | inactive: 2.17%
31 | CCN(C(=O)COC(=O)COc1ccc(Cl)c(C)c1)C1CCS(=O)(=O)C1 (stereo not given) | – | inactive: 19.5%
32 | CC(C)[C@H](NC(=O)c1ccccc1F)C(=O)NNC(=O)c1cccs1 | – | inactive: -7.94%
33 | O=C(Oc1ccccc1)c1ccc2nsnc2c1 | – | inconclusive: -30.9% [inhibitor]
34 | COc1cc2c(cc1NC(=O)CSc1ccccc1)oc1ccccc12 | inconclusive [inhibitor, single point] | –
35 | O=C1[C@H]2[C@@H](c3ccc(Cl)cc3)N3C(=O)N(c4cccc(Cl)c4)C(=O)[C@@]3(Cc3ccc(Cl)cc3)[C@H]2C(=O)N1C1CCCCC1 | inconclusive [inhibitor, single point] | –
36 | CCN(C[C@H]1N[C@@](Cc2ccccc2)(C(=O)OC)[C@H]2C(=O)N(Cc3ccccc3)C(=O)[C@@H]12)C(=O)Nc1ccc(F)cc1 | active: 16.4 µM | –
37 | COCCCCC(=NOCCN)c1ccc(C(F)(F)F)cc1 | active: 23.7 µM | –
38 | N#Cc1cnn2c1nc(N1CCOCC1)c1ccccc12 | inconclusive [inhibitor, single point] | –
39 | CC1CCN(C(=O)COc2ccc(Nc3ccccc3)cc2)CC1 | inconclusive [inhibitor, single point] | –
40 | CCOC(=O)c1[nH]c2ccccc2c1NC(=O)c1ccc(OCC)cc1 | – | inactive: 0.823%
41 | Cc1ccc(-c2nc3ccccc3[nH]2)cc1N | inconclusive [inhibitor, partial curve] | –
42 | C=CCN1C(=O)c2ccccc2Sc2ccc(C(=O)N3CCN(C)CC3)cc21 | inconclusive [inhibitor, single point] | –
43 | O=C1CC(N2CCN(Cc3ccccc3)CC2)C(=O)N1 (stereo not given) | – | inactive: 4.08%
44 | CCN1CCN(CCCNC(=O)c2cnn(-c3ccc(C)cc3)c2C2CCN(C(=O)OC(C)(C)C)CC2)CC1 | inconclusive [inhibitor, partial curve] | –
45 | Cc1ccc(N2CC(O)(c3cccs3)[N+]3=C2CCCC3)cc1 (stereo not given) | inconclusive [inhibitor, partial curve] | –
46 | COCCNC(=O)C1(C)CCCN(C(=O)c2ccc(F)c(Cl)c2)C1 (stereo not given) | – | inactive: -0.318%

Row | SMILES | Potency | activity change, negative = growth inhibition
47 | CC(C)(C)OC(=O)N1CCC[C@@H]1C(=O)NCc1ccccc1Cl | – | inactive: -29.9%
48 | CCCCN(C)CCCNC(=O)Cn1cc2c(n1)-c1c(oc(C(=O)N3CCCC3)c1C)CC2 | inconclusive [inhibitor, full curve, poor fit] | –
49 | O=C(CNC(=O)c1ccc(S(=O)(=O)N2CCCC2)cc1)N/N=C/c1ccc(Cl)cc1 | inconclusive [inhibitor, single point] | –
50 | CC(C)(C)c1nnc2sc(SCC(=O)c3ccc4c(c3)OCCO4)nn2c1=O | inconclusive [inhibitor, single point] | –
51 | Cc1ccc(NC(=O)c2cc(-c3cccs3)on2)cc1C | inconclusive [inhibitor, single point] | inconclusive: -30.8% [inhibitor]
52 | N#CC1(Nc2ccc(S(N)(=O)=O)cc2)CCCC1 | inconclusive [inhibitor, single point] | –
53 | CCCn1c(SC(C)C(=O)NCC2CCCO2)nc2sc3c(c2c1=O)CCC3 (stereo not given) | inconclusive [inhibitor, partial curve, poor fit] | –
54 | C=CCOc1ccc(CNn2nnnc2N)cc1 | inconclusive [inhibitor, single point] | –
55 | CCN(CC)C1CCN(C(=O)c2cc(COc3ccc(F)cc3Cl)on2)C1 (stereo not given) | inconclusive [inhibitor, single point] | –
56 | CN1C(=O)c2ccccc2Sc2ccc(NC(=O)N3CCCC3)cc21 | inconclusive [inhibitor, single point] | –
57 | COc1cccc(N(CC(=O)NC2CCCCC2)C(=O)CCCC(=O)Nc2ccccn2)c1 | – | inactive: 0.211%
58 | CC(C)c1ccc(OCC(=O)NNC(=S)NC(=O)c2ccco2)c(Br)c1 | inconclusive [inhibitor, single point] | –
59 | CCCCC(c1nc2ccccc2[nH]1)N(C(=O)c1ccccc1)c1ccccc1[N+](=O)[O-] (stereo not given) | inconclusive [inhibitor, single point] | –
60 | O=C(Cc1ccsc1-c1ccccc1)NO | active: 20.6 µM | –
61 | COc1ccc(S(=O)(=O)NCCS(=O)(=O)N2CCN(c3ccccc3F)CC2)cc1 | inconclusive [inhibitor, partial curve] | –
62 | Cc1cc(C)n(-c2nc3ccccc3c(=O)n2OCC(N)=O)n1 | – | inactive: -4.49%
63 | COC(=O)[C@@]12C[C@@H](CC(=O)NCc3cccc4ccccc34)C(=O)N(Cc3ccccc3)C1=CCC(C)(C)C2 | inconclusive [inhibitor, single point] | –
64 | O=C(O)COc1ccc2c(c1)O/C(=C\c1cccs1)C2=O | – | inactive: -3.14%
65 | COc1cc2c(cc1OC)C(C(=O)Nc1cccc(C)n1)C(c1cccnc1)N(C)C2=O (stereo not given) | inconclusive [inhibitor, partial curve, poor fit] | –
66 | O=S(=O)(c1ccccc1)N1CCN(Cc2nnc(-c3ccccc3)o2)CC1 | inconclusive [inhibitor, single point] | –
67 | C[C@H](OC(=O)NCc1ccc(C(F)(F)F)cc1)[C@@H]1O[C@@]2(C)CCC[C@@H]1O2 | inconclusive [inhibitor, single point] | –
68 | CN1C(C(=O)NCCc2cccs2)CC2Cn3c(nc4cc(Cl)c(Cl)cc43)C21 (stereo not given) | inconclusive [inhibitor, single point] | –
69 | Cc1ccc(S(=O)(=O)Nc2cccc(C(=O)NCc3ccc(S(N)(=O)=O)cc3)c2)cc1 | – | inactive: -10.3%
